# In paper PMC9959916:
# Chains of the proteins cited; added tags and fusions are not shown.
# UniProt Q8MKI8: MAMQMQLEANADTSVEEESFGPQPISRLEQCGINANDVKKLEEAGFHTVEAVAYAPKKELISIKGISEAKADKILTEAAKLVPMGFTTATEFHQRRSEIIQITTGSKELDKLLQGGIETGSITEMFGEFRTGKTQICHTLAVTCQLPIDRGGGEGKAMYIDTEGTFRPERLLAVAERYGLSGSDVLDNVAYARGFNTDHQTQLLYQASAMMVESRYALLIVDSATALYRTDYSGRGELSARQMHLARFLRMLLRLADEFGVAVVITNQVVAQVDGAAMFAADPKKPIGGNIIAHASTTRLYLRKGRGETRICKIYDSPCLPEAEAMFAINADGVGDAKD
# Where a chain is given by its changes, count along the chain named. No constants are given. Whether binding was seen depends on the method and setting. Some entries that bind do so weakly or less than the wild type. Sequences can lack the tags named with a protein.
# Key:
# Assay in all cases: two-hybrid; mammalian two-hybrid in HeLa cells: pM (Gal4 DNA-binding domain)-BRCA2 peptide, pVP16-canine RAD51, pG5-Luc firefly luciferase reporter, normalised to Renilla (pRL-TK); read two days after transfection
# [1] = molecular target: T1, Gal4 DNA-binding domain-fused HCR (canine BRCA2 1101–1133 aa) (canine (Canis lupus familiaris)) (UniProt Q8MKI9)
# T1 sequence: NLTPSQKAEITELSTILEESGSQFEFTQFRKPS
# [2] = molecular target: T2, Gal4 DNA-binding domain-fused cBRC1-HCR-BRC2 T1127E (canine (Canis lupus familiaris)) (UniProt Q8MKI9)
# T2 sequence: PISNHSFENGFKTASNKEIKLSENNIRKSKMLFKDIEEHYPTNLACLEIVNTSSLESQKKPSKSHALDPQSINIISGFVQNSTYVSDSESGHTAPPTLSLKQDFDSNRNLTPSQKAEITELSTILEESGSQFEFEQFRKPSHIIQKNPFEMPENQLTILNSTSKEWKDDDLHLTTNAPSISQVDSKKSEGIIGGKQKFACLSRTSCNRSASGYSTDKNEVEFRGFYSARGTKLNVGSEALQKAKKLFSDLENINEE
# [3] = molecular target: T3, Gal4 DNA-binding domain-fused cBRC1-HCR-BRC2 S1114P (canine (Canis lupus familiaris)) (UniProt Q8MKI9)
# T3 sequence: T2 sequence with S122P, E135T
# [4] = molecular target: T4, Gal4 DNA-binding domain-fused cBRC1-HCR-BRC2 T1115P (canine (Canis lupus familiaris)) (UniProt Q8MKI9)
# T4 sequence: T2 sequence with T123P, E135T
# [5] = molecular target: T5, Gal4 DNA-binding domain-fused cBRC1-HCR-BRC2 3E (S1105E, S1122E, T1127E) (canine (Canis lupus familiaris)) (UniProt Q8MKI9)
# T5 sequence: T2 sequence with S113E, S130E
# [6] = molecular target: T6, Gal4 DNA-binding domain-fused cBRC1-HCR-BRC2 S1122E (canine (Canis lupus familiaris)) (UniProt Q8MKI9)
# T6 sequence: T2 sequence with S130E, E135T
# [7] = molecular target: T7, Gal4 DNA-binding domain-fused cBRC1-HCR-BRC2 S1122A (canine (Canis lupus familiaris)) (UniProt Q8MKI9)
# T7 sequence: T2 sequence with S130A, E135T
substance,measurement,setting,value
VP16-fused canine RAD51 (from UniProt Q8MKI8 1-339),binding,[1],no binding
same,binding,[2],binds
same,binding,[3],binds
same,binding,[4],binds
same,binding,[5],binds
same,binding,[6],binds
same,binding,[7],binds
